# Reference: the supplement of paper PMC3334620
# The full ranking holds about 33,000 sequences; the median of “E-score (-0.5 to 0.5)” is about -0.012, and the highest 2% start at about 0.29. This is one part of the list.
# Target: T1, Ybr033w (UniProt P38073)
# T1 sequence: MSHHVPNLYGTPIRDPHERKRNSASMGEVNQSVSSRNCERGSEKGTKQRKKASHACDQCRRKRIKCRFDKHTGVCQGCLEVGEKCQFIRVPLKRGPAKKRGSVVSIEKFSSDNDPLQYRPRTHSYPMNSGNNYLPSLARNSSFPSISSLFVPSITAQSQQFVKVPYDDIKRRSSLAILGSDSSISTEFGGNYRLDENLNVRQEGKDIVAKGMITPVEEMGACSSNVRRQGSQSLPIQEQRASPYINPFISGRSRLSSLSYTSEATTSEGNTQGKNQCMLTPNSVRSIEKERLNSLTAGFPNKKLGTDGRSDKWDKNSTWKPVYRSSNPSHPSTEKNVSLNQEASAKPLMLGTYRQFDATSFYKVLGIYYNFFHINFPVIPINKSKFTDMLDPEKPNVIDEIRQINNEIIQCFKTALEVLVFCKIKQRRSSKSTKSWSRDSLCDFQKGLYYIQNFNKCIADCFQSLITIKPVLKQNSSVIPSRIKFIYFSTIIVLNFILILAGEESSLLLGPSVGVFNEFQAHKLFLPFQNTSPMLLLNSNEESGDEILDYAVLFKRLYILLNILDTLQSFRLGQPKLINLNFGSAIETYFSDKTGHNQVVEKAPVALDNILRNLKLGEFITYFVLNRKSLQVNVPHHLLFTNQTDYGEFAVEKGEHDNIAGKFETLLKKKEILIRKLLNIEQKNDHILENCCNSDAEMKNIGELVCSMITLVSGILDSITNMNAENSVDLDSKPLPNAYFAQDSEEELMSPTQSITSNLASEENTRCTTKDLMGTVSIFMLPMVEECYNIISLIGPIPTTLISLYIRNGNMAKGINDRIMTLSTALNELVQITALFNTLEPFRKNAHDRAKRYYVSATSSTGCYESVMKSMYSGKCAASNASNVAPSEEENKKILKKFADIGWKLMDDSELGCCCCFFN
# Assay: PBM E-score (8-mer binding enrichment) (E-score (-0.5 to 0.5)); higher = stronger / more preferred TF binding; most listed sequences are background and not binding sites
# Conditions: protein concentration: 200 nM; construct: GST-full length
# How it was run: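 Full-length yeast transcription factors or their DNA-binding domains, GST-tagged and expressed with PURExpress, were applied at about 100-200 nM to universal all-10-mer Agilent arrays. These arrays had been made double-stranded by primer extension on fresh or once-stripped slides. Detection used fluorescent anti-GST, normalisation used masliner, and E-scores for ungapped eight-base words pooled with reverse complements came from the Universal PBM Analysis Suite.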
row,Sequence,PBM E-score
1,AGAACTGA,0.0735
2,CCTTAGCA,-0.0375
3,ATCGACGC,0.0993
4,GGCCAGAC,-0.152
5,ATTTAGTA,0.376
6,GCGGTTGA,0.0885
7,GGATTAAA,0.341
8,GGCCAACC,-0.123
9,TATACGAA,0.182
10,AATGATAA,0.192
11,ACACTCCT,-0.122
12,AATTCCAC,0.235
13,GCGCCCGC,-0.226
14,GCGATCCC,-0.201
15,GCAAGAAC,0.16
16,CCAGCGCG,-0.101
17,CATCGGTC,-0.201
18,TCAATTGA,0.156
19,CCTGACTC,-0.244
20,CAGAGATG,0.0423
21,CATCTTCA,-0.0969
22,AGACCTTC,-0.216

row,Sequence,PBM E-score
1,GCCCATCA,-0.178
2,AACTGAAA,0.16
3,CTCTCGCA,-0.197
4,CCCAAGAC,-0.0859
5,CTTGGGCC,-0.286
6,AAATATGG,0.12
7,ATCAAGGG,0.0233
8,GTATCAAC,0.00681
9,CAGGATTA,0.273
10,ACGACGAT,0.0312
11,CGAGCACC,-0.323
12,TACGCATA,0.077
13,TATCGAAA,0.242
14,CTTGTCGC,-0.143
15,ACTGAGAT,-0.0419
16,AGGGAACA,0.249
17,AACTAAAG,0.231
18,TCTAACCA,0.0972
19,CGGCCGGA,-0.048
20,CCTACAGC,-0.219
21,AAACATTA,0.0756
22,CCCACAGG,-0.206

row,Sequence,PBM E-score
1,CCGCTTAG,-0.179
2,AAGCACGG,-0.216
3,TGAGGACA,0.00432
4,AAGTCAAA,0.148
5,GCTCGCAC,-0.13
6,CCCTTGTA,-0.161
7,CAGAGATC,-0.0229
8,TCCGGGAA,0.146
9,GTGATTTA,0.295
10,TAGGCACA,-0.124
11,CCCTCACG,-0.289
12,AATCGTGG,0.149
13,AATTTTTG,0.265
14,ATCCAGTA,0.122
15,AGACGACG,-0.16
16,GGGTTGAC,-0.118
17,AAAAGGAG,-0.104
18,GCATGCCC,-0.0396
19,CAGAAATA,0.214
20,CTCCGAAG,0.0523
21,AACGGCAC,-0.255
22,ATGCCCTC,0.00472

row,Sequence,PBM E-score
1,GAGCTCGA,-0.137
2,CCTTTGTC,-0.0804
3,ATCATCGC,-0.0317
4,CTACAGAA,0.148
5,AACCACCA,0.0528
6,AACGCTTC,-0.045
7,ACCGCGGG,-0.0509
8,CTAAAGAA,0.0669
9,AGCCGCAT,0.0405
10,ATGAAAAG,-0.153
11,ACATACTA,0.138
12,CTCTAGAC,-0.0638
13,CACCATTA,-0.00605
14,ACTGCTTA,0.0348
15,ATATGACG,0.0969
16,CATCTCGG,0.0046
17,AGAGCCAG,-0.223
18,AAATCGTC,0.112
19,ACCACAGA,-0.0371
20,AGCGCTTA,-0.0172
